Among the data in patent publication US20180312819A1 (AP BIOSCIENCES, published 2018) are EC50 values, retold here.

In experiment [1] the target is T1, VEGF-A (R&D Systems) (UniProt P15692-4 27-191, limits assumed).
T1 sequence (looked up): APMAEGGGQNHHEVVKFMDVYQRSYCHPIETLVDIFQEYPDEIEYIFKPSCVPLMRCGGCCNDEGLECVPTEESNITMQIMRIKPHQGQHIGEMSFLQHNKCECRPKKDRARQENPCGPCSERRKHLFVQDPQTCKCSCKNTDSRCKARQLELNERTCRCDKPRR
Briefly: direct ELISA, VEGF-A coated on plate, anti-Fc HRP detection. On the procedure:
The data was analyzed by sigmoidal curve fitting using Prism 4.
A general note: An ELISA detects its analyte on a solid surface through an enzyme-linked reagent.

The target of experiment [2] is T1, VEGF-A (R&D Systems). Briefly: solution binding: 5 pM VEGF-A incubated overnight at 4 C with 0-100 pM ACVP-1, free VEGF measured by sandwich ELISA (Human VEGF Quantikine kit); experiment 2 of 2.
The target in another experiment is T2, VEGF165 (293-VE) (UniProt P15692-4 27-191).
T2 construct: the UniProt canonical entry is a longer isoform; also called VEGF-A
T2 sequence (looked up): T1 sequence (looked up)
Briefly: solution binding: VEGF165 incubated 45 min at 37 C with titrated ACVP-1, free VEGF measured by ELISA (Human VEGF DuoSet kit). On the procedure: After incubation, free VEGF was detected using the Human VEGF DuoSet ELISA Development Kit (R&D Systems Catalog No. DY293B) according to the manufacturer's instructions. The data was analyzed by sigmoidal curve fitting using Prism 4.

Experiment [3] addresses T1, VEGF-A (R&D Systems). Put plainly: solution binding: 5 pM VEGF-A incubated overnight at 4 C with 0-100 pM ACVP-1, free VEGF measured by sandwich ELISA (Human VEGF Quantikine kit); experiment 1 of 2.

Usually EC50 stands for the concentration at which the effect is half-maximal.

B1: ACVP-1 (bispecific anti-complement/VEGF fusion protein: VID - human IgG1 Fc - G6 linker - CID-KYDN) (Fc fusion)
chain: GRPFVEMYSEIPEIIHMTEGRELVIPCRVTSPNITVTLKKFPLDTLIPDGKRIIWDSRKGFIISNATYKEIGLLTCEATVNGHLYKTNYLTHRQTNTIIDVVLSPSHGIELSVGEKLVLNCTARTELNVGIDFNWEYPSSKHQHKKLVNRDLKTQSGSEMKKFLSTLTIDGVTRSDQGLYTCAASSGLMTKKNSTFVRVHEK[human IgG1 Fc cut from this listing][about 200 residues cut from this listing]
notes: Expressed in HEK293 with the SP2 signal peptide, purified on Protein A; also called bispecific fusion protein ACVP-1
With B1, the EC50 is 220 pM with VEGF-A (R&D Systems) [1], 3.42 pM with VEGF-A (R&D Systems) [2], 16.5 pM with VEGF165 (293-VE) and 3.44 pM with VEGF-A (R&D Systems) [3].
